The other results are listed elsewhere or left out. Viral Rep nickase domains cut single-stranded DNA in vitro at 3 µM enzyme and 37 °C for 1 h; the strands have 90 letters, of which the middle is given. Numbers give uncut DNA relative to the enzyme-free pool, as log2; uncut sequences lie near 0, cut ones below; no hit call is given. The scaling is to total reads; uncut strands gain when others are lost, and binding without cutting may add a little.

The test has as its system T1, Rep nickase domain of tomato golden mosaic virus.
T1 sequence (Rep 1-124, printed without the tag): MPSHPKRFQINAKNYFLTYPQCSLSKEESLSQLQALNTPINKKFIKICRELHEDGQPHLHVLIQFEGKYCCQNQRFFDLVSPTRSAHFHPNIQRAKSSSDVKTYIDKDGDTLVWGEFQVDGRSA
The experiment in a line: uncleaved DNA left, log2 of reads against the no-enzyme library (log2 ratio); higher = less cleavage (more negative = more Rep cleavage of the k-mer); sequences stand for … in CTCGTCCG…ACCGGAGA
The method, then:
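A pool of 90-nt single-stranded DNAs with seven random bases just before the constant AC of the nick site (name = the seven bases) was cut by 3 µM recombinant His6-SUMO-tagged Rep nickase domain (300 nM DNA, 50 mM HEPES pH 8.0, 50 mM NaCl, 1 mM MnCl2, 1 h, 37 °C, three replicates). Uncut DNA was amplified and sequenced.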
Regarding GAAGGAG, the “uncleaved DNA left (log2)” value was found to be 0.0301.
Consider CTAGGGC, for which the “uncleaved DNA left (log2)” value is -0.0639.
To CGTTAGC belongs 0.0408; to CCACGCT, -0.158.
The result for CCATGGA reads 0.0882.
As for GAGACCC, the “uncleaved DNA left (log2)” value was found to be 0.016.
To TACGAGC belongs 0.143; to TTGCATG, 0.0705.
TCGATGC: the “uncleaved DNA left (log2)” value was -0.156.
To TTCATGA belongs 0.102; to GTCTCGG, 0.166; to CCGATAC, -0.0289.
On to TTGGCGG, for which the “uncleaved DNA left (log2)” value came out at 0.0518.
The result for TCCACGT reads -0.0333.
To CTCGATT belongs -0.149; to GTACTTT, 0.144; to CCTCTTC, -0.023.
ATCCTTC: the “uncleaved DNA left (log2)” value was -0.167.
For ATGTCGT, the “uncleaved DNA left (log2)” value is -0.0989.
On to AGGGAAC, for which the “uncleaved DNA left (log2)” value was determined as 0.173.
To TACAATA belongs -0.00111.
The result for ACCCCAC reads -0.00179; that for ATCGTGT, -0.132.
The result for CAGGGGA reads 0.00683; that for ATACGTT, -0.0472.
Consider CGCCCTC, for which the “uncleaved DNA left (log2)” value is -0.0707.
Turning to GTTACAA, the “uncleaved DNA left (log2)” value came out at 0.128.
Take TATCGGG: the “uncleaved DNA left (log2)” value was -0.0344.
To TTTTTGG belongs 0.0842.
To TGCTATC belongs 0.00258; to CTAGACT, -0.205.
To GGAAAAG belongs 0.116; to GACGCAC, -0.0503.
On to AATACCT, for which the “uncleaved DNA left (log2)” value was -0.11.
The result for AACACTC reads 0.0795; that for AGATGGC, 0.00838; that for TGGAAGG, 0.116.
The result for TTTGCAA reads -0.0149; that for GTCGACC, 0.0519; that for ATCCAAG, -0.0049.
